Measurements from article PMC8166750 (The Journal of Biological Chemistry, 2021).

Target: T1, zfP2X4^E121A (Danio rerio, UniProt F8W463, E121A)
T1 sequence (F8W463 1-389 E121A): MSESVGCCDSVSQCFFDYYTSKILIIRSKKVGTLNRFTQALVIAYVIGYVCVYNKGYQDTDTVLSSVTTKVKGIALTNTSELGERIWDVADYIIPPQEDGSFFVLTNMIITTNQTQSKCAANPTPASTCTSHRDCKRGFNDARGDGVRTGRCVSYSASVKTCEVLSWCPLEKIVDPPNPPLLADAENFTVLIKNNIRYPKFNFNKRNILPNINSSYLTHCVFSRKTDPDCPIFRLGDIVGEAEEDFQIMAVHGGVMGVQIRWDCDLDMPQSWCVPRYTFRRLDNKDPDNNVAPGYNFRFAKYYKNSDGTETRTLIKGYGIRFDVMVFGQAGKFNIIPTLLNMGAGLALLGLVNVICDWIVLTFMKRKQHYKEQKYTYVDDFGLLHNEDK

Structure (SMILES): Nc1ncnc2c1ncn2[C@@H]1O[C@H](COP(=O)(O)OP(=O)(O)OP(=O)(O)O)[C@@H](O)[C@H]1O [ATP]
- nH (Hill coefficient) of ATP: 1.02 ± 0.18
